# Measured values as given in PubChem BioAssay AID720708 (National Center for Advancing Translational Sciences (NCATS), 2013).
# Hit rate of the full screen: of about 360,000 compounds, about 660 (0.18%) were called active. Inconclusive means that the source gave no clear call. Such entries were picked first, then a sample of the others. Calls come from the whole dose curve; as a rule, active = well fitted inhibition curve with a large enough effect; inconclusive = small, poorly fitted or top-dose-only effect; inactive = no such curve, though single readings can be large or run the other way. Potencies of inconclusive entries are left out as doubtful fits.
# Target: Rap guanine nucleotide exchange factor 4 (Homo sapiens) (UniProt Q8WZA2)
# Chain of UniProt Q8WZA2 (Q8WZA2 whole entry, looked up): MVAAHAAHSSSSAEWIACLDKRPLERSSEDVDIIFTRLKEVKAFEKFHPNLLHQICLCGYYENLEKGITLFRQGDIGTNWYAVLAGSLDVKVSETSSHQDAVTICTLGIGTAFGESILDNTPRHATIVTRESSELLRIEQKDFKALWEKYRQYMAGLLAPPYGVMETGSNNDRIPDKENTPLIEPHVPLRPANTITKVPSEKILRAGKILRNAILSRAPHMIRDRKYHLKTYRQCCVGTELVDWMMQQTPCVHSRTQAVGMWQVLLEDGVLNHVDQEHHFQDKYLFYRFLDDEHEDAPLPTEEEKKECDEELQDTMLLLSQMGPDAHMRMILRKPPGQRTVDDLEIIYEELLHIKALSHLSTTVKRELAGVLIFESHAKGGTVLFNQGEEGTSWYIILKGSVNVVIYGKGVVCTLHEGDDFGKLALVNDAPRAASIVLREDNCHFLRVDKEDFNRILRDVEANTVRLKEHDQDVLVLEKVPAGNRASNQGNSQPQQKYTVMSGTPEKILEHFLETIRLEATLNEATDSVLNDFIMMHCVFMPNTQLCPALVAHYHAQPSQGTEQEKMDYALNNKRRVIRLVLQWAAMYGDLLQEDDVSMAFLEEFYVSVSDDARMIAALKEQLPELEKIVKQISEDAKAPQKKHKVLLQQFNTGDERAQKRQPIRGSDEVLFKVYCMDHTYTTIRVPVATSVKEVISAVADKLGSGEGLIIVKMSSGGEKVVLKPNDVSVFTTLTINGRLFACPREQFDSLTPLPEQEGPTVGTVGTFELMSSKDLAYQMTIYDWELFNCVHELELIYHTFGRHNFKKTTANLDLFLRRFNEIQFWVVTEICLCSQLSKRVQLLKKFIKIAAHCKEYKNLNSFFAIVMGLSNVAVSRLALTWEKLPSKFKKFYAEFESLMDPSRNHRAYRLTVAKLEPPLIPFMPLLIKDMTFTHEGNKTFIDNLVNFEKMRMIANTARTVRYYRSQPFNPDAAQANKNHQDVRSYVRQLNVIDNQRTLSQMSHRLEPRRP
# Assay: qHTS for Antagonist of cAMP-regulated guanine nucleotide exchange factor 2 (EPAC2): primary screen; note: nearly all actives have a fitted effect of over 45% in size
# Details: EPAC2 GEF exchange of Rap1B-BODIPY-GDP, fluorescence; activity, negative = inhibition: at 114 µM (top of the series) unless noted
# % is set by controls: 0 for no effect and ±100 for the full control effect; potency is the fitted concentration of half-maximal effect; tags give direction and shape of the fitted curve.
Compound,Potency,"activity, negative = inhibition"
CCCN(CCC)C(=O)CSc1nc2c(sc(=S)n2-c2ccc(OCC)cc2)c(=O)[nH]1,"inconclusive [inhibitor, partial curve]",
COc1cc2c(c(OC)c1OC)-c1c(cc3c(c1O)OCO3)C[C@@H](C)[C@@H](C)C2,"inconclusive [inhibitor, partial curve]",
COC(=O)c1ccc(COc2ccccc2/C=C(\C#N)C(=O)Nc2c(C)cccc2C)cc1,inactive,
Cc1cc(C)c(S(=O)(=O)NCc2ccccn2)c(C)c1,"inconclusive [inhibitor, full curve, poor fit]",
CN(Cc1ccccc1N1CCCC1)C(=O)c1cc2cc(Cl)ccc2o1,"inconclusive [inhibitor, full curve]",
COc1ccc(C2=C(c3ccccc3)OC(OC)c3cc(F)ccc32)cn1 (stereo not given),"inconclusive [inhibitor, partial curve]",
C=CCN(c1cccc(C(F)(F)F)c1)S(=O)(=O)c1cccc(C(=O)OCC(=O)NC(N)=O)c1,"inconclusive [inhibitor, single point]",
CCC/C(O)=C1\C(=O)CC(C)(C)CC1=Nc1ccc(OC)cc1OC,"inconclusive [inhibitor, single point]",
COCCC(=O)N1CCOCC1c1cc(C(=O)Nc2ccccc2)no1 (stereo not given),inactive,
N#CC1=C(N)SC(N)=C(C#N)C1c1cccc(Oc2ccccc2)c1,active: 50.1 µM,
CC1(C(=O)Nc2ccccc2Cc2ccccc2)CCN1CCc1ccccc1 (stereo not given),"inconclusive [inhibitor, partial curve]",
O=C(COc1ccc(Br)cc1)NNC(=S)NCc1ccccc1,"inconclusive [inhibitor, single point]",
CCOC(=O)C1=C(N)OC2=C(C(=O)CC(C)(C)C2)C1c1ccc(C)s1 (stereo not given),"inconclusive [inhibitor, partial curve]",
CN1OC[C@@H]2CN(Cc3cc(Cl)cc(Cl)c3)[C@H](c3cccc(Br)c3)C[C@@H]21,inactive,
O=C1c2ccccc2NC2(CCCCC2)N1c1ccc(O)cc1,inactive,
Cc1ccc(S(=O)(=O)N2CCOCC2)cc1NC(=O)CN1CCC(Cc2ccccc2)CC1,"inconclusive [inhibitor, partial curve]",
CC(C)(C)C1CCc2c(sc(N)c2C(N)=O)C1 (stereo not given),inactive,
S=C(NN=C1CCN(Cc2ccccc2)CC1)NC1CCCCC1,"inconclusive [inhibitor, partial curve]",
Nc1nc(Cl)nc2c1ncn2[C@H]1C[C@H](O)[C@@H](CO)O1,"inconclusive [inhibitor, single point]",
CCCc1cc(=O)oc2cc(C)cc(OCC(=O)N[C@@H](CSCc3ccccc3)C(=O)O)c12,"inconclusive [inhibitor, partial curve]",
Cc1ccc(C)c(N2CCN(C(=O)c3ccc(CS(=O)Cc4ccc(Cl)cc4)o3)CC2)c1 (stereo not given),"inconclusive [inhibitor, partial curve]",
N#C/C(=C\c1cccs1)C(=O)NCc1ccccc1,inactive,

Compound,Potency,"activity, negative = inhibition"
COc1ccc(NS(=O)(=O)c2ccc(NC(=O)CCNS(=O)(=O)c3ccc(C)cc3)cc2)cc1,"inconclusive [inhibitor, full curve, poor fit]",
COc1ccc(CCNC2CC(=O)N(CCc3ccc(OC)c(OC)c3)C2=O)cc1 (stereo not given),"inconclusive [inhibitor, single point]",
CC(=O)Nc1ccc(/C(C)=N/NC(=O)c2ccc(COc3ccccc3Cl)o2)cc1,"inconclusive [inhibitor, single point]",
CCOc1ccccc1NC(=O)C1COc2ccccc2O1 (stereo not given),"inconclusive [inhibitor, partial curve]",
Cc1cccc(-c2cc(NC=O)c3ncc(-c4cccc(C(=O)N(C)C)c4)n3c2)c1,"inconclusive [inhibitor, full curve, poor fit]",
Cc1[nH]c2ccccc2c1C(C[N+](=O)[O-])c1cccs1 (stereo not given),"inconclusive [inhibitor, full curve]",
COC(=O)c1cc(C(=O)OC)n(Cc2ccc(F)cc2)c1C,"inconclusive [inhibitor, partial curve]",
COC(=O)[C@@]1(C)[C@H]2C(=O)N(Cc3ccccc3)C(=O)[C@H]2[C@H]2CN=C(SCc3ccc(C)cc3)N21,"inconclusive [inhibitor, partial curve]",
N#CC(C#N)=C1C=CC=CN1/C(=C\c1ccco1)C(=O)c1ccc(Br)cc1,inactive,
COc1ccccc1Cc1c(C2CCCCC2)nc2ccc(Br)cn12,inactive,
CCOC(=O)c1c(C2COc3ccccc3O2)csc1N (stereo not given),"inconclusive [inhibitor, single point]",
CCO[C@H]1OC(C(N)=O)=C[C@@H](c2csc3ccccc23)[C@@H]1CCCO,"inconclusive [inhibitor, partial curve]",
CC(C)CCNC1c2ccccc2C(=O)N1Cc1ccccc1 (stereo not given),"inconclusive [inhibitor, partial curve]",
N#Cc1ccc(/C=C\c2nccc3c2[nH]c2ccccc23)cc1,"inconclusive [inhibitor, partial curve]",
CCCCC(=O)N(c1ccc(C(=O)O)cc1)c1nc(-c2ccc(Cl)cc2)c(CC)s1,"inconclusive [inhibitor, full curve]",
CC1(C)CC(=O)C2=C(C1)c1c(ccc3ccccc13)NC2c1cc([N+](=O)[O-])cc([N+](=O)[O-])c1O (stereo not given),active: 79.4 µM,
CC[C@H](C)/C=C/C1=CC2=C(Cl)C(=O)[C@@]3(C)OC(=O)C(C(=O)[C@H](C)[C@@H](C)O)=C3C2=CO1,"inconclusive [inhibitor, partial curve]",
CCCCOc1ccc(C(=O)N=c2sccn2C)cc1OC,inactive,
Cc1ccc2oc(=O)n(Cc3ccc(OC(C)C)cc3)c2c1,"inconclusive [inhibitor, full curve]",
O=C(NC1=NCCS1)C1CCN(S(=O)(=O)c2ccccc2C(F)(F)F)CC1,"inconclusive [inhibitor, single point]",
C[C@@H]1CN([C@@H](C)CO)C(=O)CCCn2nncc2CO[C@H]1CN(C)Cc1ccc(-c2ccccc2)cc1,"inconclusive [inhibitor, full curve, poor fit]",
Cc1ccccc1S(=O)(=O)NC(=O)C1(C)CCN1C(=O)C1(c2ccc(Cl)cc2)CCC1 (stereo not given),,inconclusive: -7.43% [inhibitor]

Compound,Potency,"activity, negative = inhibition"
O=C(OCC(=O)c1c[nH]c2ccccc12)c1cccc([N+](=O)[O-])c1,inactive,
CCCCCCCCN1C(=O)[C@H](CC(=O)NCCc2ccccc2OC)C[C@@]2(C(=O)OCC)CCC=C12,"inconclusive [inhibitor, partial curve]",
O=C(NCC1CC1)c1cccc2c1C(=O)c1ccc(-c3ccc(OC(F)(F)F)cc3)cc1S2(=O)=O,,inconclusive: 0.921% [inhibitor]
COc1cc2c(cc1OC)C(c1ccccc1O)N(C1CC(=O)N(c3ccccc3)C1=O)CC2 (stereo not given),inactive,
CCCC(=O)NC(c1ccc(C(C)C)cc1)c1ccc2cccnc2c1O (stereo not given),inactive,
Oc1ccc(N=C/C=C/c2cccc(Br)c2)cc1-c1nc2ccccc2s1,"inconclusive [inhibitor, partial curve, poor fit]",
CCCCCCCNC(=O)C1(CC2CC(c3cccc(Br)c3)=NO2)CCN(C(=O)CCCCCBr)CC1 (stereo not given),"inconclusive [inhibitor, partial curve]",
COC(=O)c1cc2ccccc2n1Cc1ccc(Cl)nc1,"inconclusive [inhibitor, full curve]",
CC(C)c1cccc(-c2csc(C(O)c3ccco3)n2)c1 (stereo not given),"inconclusive [inhibitor, single point]",
COc1ccc(S(=O)(=O)N2CCCN(CC(=O)Nc3cc(NC(C)=O)ccc3OC)CC2)cc1,"inconclusive [inhibitor, single point]",
O=C(NCC(O)c1nc2ccccc2[nH]1)c1cc([N+](=O)[O-])ccc1F (stereo not given),inactive,
O=C(O)c1ccccc1NS(=O)(=O)c1ccc(N/N=C/c2ccc(O)c(O)c2)c([N+](=O)[O-])c1,active: 56.2 µM,
Cc1ccc(C)c(OC(C)C(=O)Nc2ccc(S(=O)(=O)Nc3nccs3)cc2)c1 (stereo not given),"inconclusive [inhibitor, partial curve]",
COCCn1c(SCc2cccc(F)c2)nc2cc(C(=O)OC)ccc2c1=O,"inconclusive [inhibitor, full curve]",
O=C(NCc1cccnc1)c1cccn2c(=O)c3sccc3nc12,inactive,
c1coc(CNc2nc3ccccc3s2)c1,inactive,
COc1cc(SC)ccc1C(=O)N(Cc1ccccc1)c1ccccc1,"inconclusive [inhibitor, full curve]",
CC(C)NC(=O)N(C)C[C@@H]1Oc2ccc(NC(=O)Nc3ccc(C(F)(F)F)cc3)cc2CC(=O)N([C@H](C)CO)C[C@@H]1C,"inconclusive [inhibitor, full curve, poor fit]",
O=C(NCc1ccc(Cl)cc1)C1CCN(C(=O)Cc2ccccc2)CC1,inactive,
CCCCC(=O)O[C@H]1CC[C@H]2[C@@H]3CCc4cc(O)ccc4[C@H]3CC[C@]12C,"inconclusive [inhibitor, full curve]",
COc1ccc(-c2ncncc2-c2ccc(Cl)cc2)c(O)c1,"inconclusive [inhibitor, full curve]",
